# Results published in the supplement of paper PMC8728848.
# The other results are listed elsewhere or left out.
# B1: PX9961C-bth-497-22-497 (Bacteroides thetaiotaomicron) (protein)
# chain: DWLDLNTTSSVETGQAIVTLDDAQIALNGIYRLASGHSYYGDNYWYYGDCRAADVQARITKGDGKRVSPYYEYNVLASDNLNIVLPWNTVYKVIRQTNNLIQKIESGSIQSSDTKELNRIKSEALVMRGLSLFNLTRLFGMPYTNDKGASLGVPIETSPSDPTHKPSRSTVAQCYEQVVSDMSNALSGLRQETSNGYINYWAAQALLSRVYLNMGEYQKAYDAATDVIKNNGGRYQLYSYEEYPNVWGQDFQSESLFELYITLSEPSGGTGGEGAPMVYANEATVDWNNLILSEDFLNLLNEDPKDVRHCLTKESVIENNTGLPAAAMHEKVYLAKFPGKTGDDPKTNNICIIRLSEVYLNAAEAGLKKGTDIEEAQGYLNDIISRRTTDTSQQVSTETFTLDRILKERRKELVGEGEVFYDYLRNGLAIERKGSWHLETLKASNAQKIEATDLRIALPIPQSEIDANPNIQQNPR
# Columns and labels:
# Assay in all cases: glycan array binding signal (z-score within array); higher = stronger binding
# Settings in all cases: glycan notation: IUPAC condensed, linker removed
# Fuc(a1-2)Gal = molecular target: Fuc(a1-2)Gal
# Procedure, shortened: (§1)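 Glycan array data came from 3228 arrays in the Consortium for Functional Glycomics database, and only arrays with an available protein sequence were kept. Glycan names were put into IUPAC-condensed notation, and columns mapping to the same glycan were averaged. The binding signal is a within-array Z-score, averaged across arrays of one protein sequence run at different concentrations or buffers and across linkers. A negative Z-score can be read as non-binding.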
# Fuc(a1-2)Gal(b1-3)GalNAc = molecular target: Fuc(a1-2)Gal(b1-3)GalNAc
# Procedure, shortened: as §1
# [1] = molecular target: Fuc(a1-2)Gal(b1-3)GalNAc(a1-3)[Fuc(a1-2)]Gal(b1-4)Glc
# Procedure, shortened: as §1
# [2] = molecular target: Fuc(a1-2)Gal(b1-3)GalNAc(a1-3)[Fuc(a1-2)]Gal(b1-4)GlcNAc
# Procedure, shortened: as §1
# [3] = molecular target: Fuc(a1-2)Gal(b1-3)GalNAc(b1-3)Gal
# Procedure, shortened: as §1
# [4] = molecular target: Fuc(a1-2)Gal(b1-3)GalNAc(b1-3)Gal(a1-4)Gal(b1-4)Glc
# Procedure, shortened: as §1
# [5] = molecular target: Fuc(a1-2)Gal(b1-3)GalNAc(b1-4)[Neu5Ac(a2-3)]Gal(b1-4)Glc
# Procedure, shortened: as §1
# Fuc(a1-2)Gal(b1-3)GlcNAc = molecular target: Fuc(a1-2)Gal(b1-3)GlcNAc
# Procedure, shortened: as §1
# [6] = molecular target: Fuc(a1-2)Gal(b1-3)GlcNAc(b1-2)Man(a1-3)[Fuc(a1-2)Gal(b1-3)GlcNAc(b1-2)Man(a1-6)]Man(b1-4)GlcNAc(b1-4)GlcNAc
# Procedure, shortened: as §1
# [7] = molecular target: Fuc(a1-2)Gal(b1-3)GlcNAc(b1-2)Man(a1-3)[Fuc(a1-2)Gal(b1-3)GlcNAc(b1-2)Man(a1-6)]Man(b1-4)GlcNAc(b1-4)[Fuc(a1-6)]GlcNAc
# Procedure, shortened: as §1
# [8] = molecular target: Fuc(a1-2)Gal(b1-3)GlcNAc(b1-3)Gal(b1-4)Glc
# Procedure, shortened: as §1
# [9] = molecular target: Fuc(a1-2)Gal(b1-3)GlcNAc(b1-3)GalNAc
# Procedure, shortened: as §1
# [10] = molecular target: Fuc(a1-2)Gal(b1-3)GlcNAc(b1-3)[Fuc(a1-2)Gal(b1-3)GlcNAc(b1-6)]GalNAc
# Procedure, shortened: as §1
# [11] = molecular target: Fuc(a1-2)Gal(b1-3)GlcNAc(b1-3)[Gal(b1-4)GlcNAc(b1-6)]Gal(b1-4)Glc
# Procedure, shortened: as §1
# [12] = molecular target: Fuc(a1-2)Gal(b1-3)GlcNAc(b1-3)[Neu5Ac(a2-6)Gal(b1-4)GlcNAc(b1-6)]Gal(b1-4)Glc
# Procedure, shortened: as §1
# [13] = molecular target: Fuc(a1-2)Gal(b1-3)GlcNAc6S
# Procedure, shortened: as §1
# [14] = molecular target: Fuc(a1-2)Gal(b1-3)[Fuc(a1-4)]GlcNAc
# Procedure, shortened: as §1
# [15] = molecular target: Fuc(a1-2)Gal(b1-3)[Fuc(a1-4)]GlcNAc(b1-2)Man(a1-3)[Fuc(a1-2)Gal(b1-3)[Fuc(a1-4)]GlcNAc(b1-2)Man(a1-3)]Man(b1-4)GlcNAc(b1-4)GlcNAc
# Procedure, shortened: as §1
# [16] = molecular target: Fuc(a1-2)Gal(b1-3)[Fuc(a1-4)]GlcNAc(b1-2)Man(a1-3)[Fuc(a1-2)Gal(b1-3)[Fuc(a1-4)]GlcNAc(b1-2)Man(a1-6)]Man(b1-4)GlcNAc(b1-4)[Fuc(a1-6)]GlcNAc(b1-4)[Fuc(a1-6)]GlcNAc
# Procedure, shortened: as §1
# [17] = molecular target: Fuc(a1-2)Gal(b1-3)[Fuc(a1-4)]GlcNAc(b1-3)[Fuc(a1-3)[Gal(b1-4)]GlcNAc(b1-6)]Gal(b1-4)Glc
# Procedure, shortened: as §1
# [18] = molecular target: Fuc(a1-2)Gal(b1-3)[Fuc(a1-4)]GlcNAc(b1-3)[Gal(b1-4)GlcNAc(b1-6)]Gal(b1-4)Glc
# Procedure, shortened: as §1
# Fuc(a1-2)Gal(b1-4)Glc = molecular target: Fuc(a1-2)Gal(b1-4)Glc
# Procedure, shortened: as §1
# Fuc(a1-2)Gal(b1-4)Glc6S = molecular target: Fuc(a1-2)Gal(b1-4)Glc6S
# Procedure, shortened: as §1
# Fuc(a1-2)Gal(b1-4)GlcNAc = molecular target: Fuc(a1-2)Gal(b1-4)GlcNAc
# Procedure, shortened: as §1
# [19] = molecular target: Fuc(a1-2)Gal(b1-4)GlcNAc(b1-2)Man
# Procedure, shortened: as §1
# [20] = molecular target: Fuc(a1-2)Gal(b1-4)GlcNAc(b1-2)Man(a1-3)[Fuc(a1-2)Gal(b1-4)GlcNAc(b1-2)Man(a1-6)]Man(b1-4)GlcNAc(b1-4)GlcNAc
# Procedure, shortened: as §1
# [21] = molecular target: Fuc(a1-2)Gal(b1-4)GlcNAc(b1-2)Man(a1-3)[Fuc(a1-2)Gal(b1-4)GlcNAc(b1-2)Man(a1-6)]Man(b1-4)GlcNAc(b1-4)[Fuc(a1-6)]GlcNAc
# Procedure, shortened: as §1
# [22] = molecular target: Fuc(a1-2)Gal(b1-4)GlcNAc(b1-2)[Fuc(a1-2)Gal(b1-4)GlcNAc(b1-4)]Man(a1-3)[Fuc(a1-2)Gal(b1-4)GlcNAc(b1-2)Man(a1-6)]Man(b1-4)GlcNAc(b1-4)GlcNAc
# Procedure, shortened: as §1
# [23] = molecular target: Fuc(a1-2)Gal(b1-4)GlcNAc(b1-3)Gal(b1-4)GlcNAc
# Procedure, shortened: as §1
# [24] = molecular target: Fuc(a1-2)Gal(b1-4)GlcNAc(b1-3)Gal(b1-4)GlcNAc(b1-2)Man(a1-3)[Fuc(a1-2)Gal(b1-4)GlcNAc(b1-3)Gal(b1-4)GlcNAc(b1-2)Man(a1-6)]Man(b1-4)GlcNAc(b1-4)GlcNAc
# Procedure, shortened: as §1
binder,measurement,setting,value
B1,glycan array binding signal (z-score),Fuc(a1-2)Gal,-0.453
same,glycan array binding signal (z-score),Fuc(a1-2)Gal(b1-3)GalNAc,-0.104
same,glycan array binding signal (z-score),[1],-0.365
same,glycan array binding signal (z-score),[2],-0.6
same,glycan array binding signal (z-score),[3],-0.484
same,glycan array binding signal (z-score),[4],-0.381
same,glycan array binding signal (z-score),[5],-0.144
same,glycan array binding signal (z-score),Fuc(a1-2)Gal(b1-3)GlcNAc,-0.242
same,glycan array binding signal (z-score),[6],0.463
same,glycan array binding signal (z-score),[7],-0.338
same,glycan array binding signal (z-score),[8],-0.187
same,glycan array binding signal (z-score),[9],-0.626
same,glycan array binding signal (z-score),[10],0.12
same,glycan array binding signal (z-score),[11],0.471
same,glycan array binding signal (z-score),[12],0.349
same,glycan array binding signal (z-score),[13],0.54
same,glycan array binding signal (z-score),[14],-0.262
same,glycan array binding signal (z-score),[15],-0.188
same,glycan array binding signal (z-score),[16],-0.062
same,glycan array binding signal (z-score),[17],-0.014
same,glycan array binding signal (z-score),[18],-0.24
same,glycan array binding signal (z-score),Fuc(a1-2)Gal(b1-4)Glc,-0.121
same,glycan array binding signal (z-score),Fuc(a1-2)Gal(b1-4)Glc6S,0.149
same,glycan array binding signal (z-score),Fuc(a1-2)Gal(b1-4)GlcNAc,0.122
same,glycan array binding signal (z-score),[19],-0.387
same,glycan array binding signal (z-score),[20],0.822
same,glycan array binding signal (z-score),[21],1.12
same,glycan array binding signal (z-score),[22],0.653
same,glycan array binding signal (z-score),[23],-0.376
same,glycan array binding signal (z-score),[24],0.339
